# Measurements published in publication PMC4336329 (PLoS ONE, 2015).
# About 2,200 (0.71%) of roughly 310,000 compounds showed an effect of 50% or more. The effect is printed as a negative number. Some of the results follow.
# Molecular target: human ether-à-go-go-related gene (hERG) potassium channel (human, UniProt Q12809)
# Test: primary screen, population patch clamp on CHO cells stably expressing hERG
# human ether-à-go-go-related gene (hERG) potassium channel, sequence (Q12809 whole entry, looked up): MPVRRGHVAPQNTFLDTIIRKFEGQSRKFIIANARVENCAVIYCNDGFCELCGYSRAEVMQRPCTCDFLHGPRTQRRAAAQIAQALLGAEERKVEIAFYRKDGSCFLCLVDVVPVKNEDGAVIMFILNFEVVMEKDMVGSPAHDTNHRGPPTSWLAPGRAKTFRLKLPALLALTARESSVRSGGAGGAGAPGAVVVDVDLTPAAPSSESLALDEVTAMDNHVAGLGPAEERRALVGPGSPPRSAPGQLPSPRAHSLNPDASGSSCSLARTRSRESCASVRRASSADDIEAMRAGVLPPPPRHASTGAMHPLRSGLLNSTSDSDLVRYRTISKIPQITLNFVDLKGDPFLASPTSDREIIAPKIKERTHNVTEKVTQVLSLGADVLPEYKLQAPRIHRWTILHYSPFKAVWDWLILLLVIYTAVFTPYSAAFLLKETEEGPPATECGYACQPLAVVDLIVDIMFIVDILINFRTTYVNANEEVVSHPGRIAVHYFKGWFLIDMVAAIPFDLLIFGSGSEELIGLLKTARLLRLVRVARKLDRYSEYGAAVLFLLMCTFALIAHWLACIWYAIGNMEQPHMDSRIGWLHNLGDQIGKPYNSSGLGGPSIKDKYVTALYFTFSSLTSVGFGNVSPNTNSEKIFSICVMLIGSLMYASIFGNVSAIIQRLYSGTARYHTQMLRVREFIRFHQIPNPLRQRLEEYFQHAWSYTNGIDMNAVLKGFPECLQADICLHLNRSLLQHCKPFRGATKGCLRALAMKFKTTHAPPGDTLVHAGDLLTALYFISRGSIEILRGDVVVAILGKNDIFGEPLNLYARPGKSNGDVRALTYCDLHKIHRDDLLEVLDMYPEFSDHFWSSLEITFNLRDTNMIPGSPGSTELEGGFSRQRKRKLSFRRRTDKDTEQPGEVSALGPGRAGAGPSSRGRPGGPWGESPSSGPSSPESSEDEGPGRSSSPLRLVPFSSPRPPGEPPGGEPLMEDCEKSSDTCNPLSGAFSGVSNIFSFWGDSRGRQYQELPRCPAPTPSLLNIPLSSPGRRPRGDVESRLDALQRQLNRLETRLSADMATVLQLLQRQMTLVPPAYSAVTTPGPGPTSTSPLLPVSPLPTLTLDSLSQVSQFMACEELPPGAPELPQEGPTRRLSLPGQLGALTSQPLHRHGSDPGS
row,SMILES,"hERG current change (%, negative = inhibition) at 1uM [%]"
1,O=C(CCc1nc2sc3c(c2c(=O)[nH]1)CCCC3)NCCc1ccc(F)cc1,5.64
2,C=CCn1c(=O)c2c(nc3n2CCN3c2cccc(Cl)c2C)n(C)c1=O,3.58
3,Cc1ccc2nc(SCC(=O)N3CCCC3)nc(=O)n2c1,11.4
4,Cc1cc(C)c(S(=O)(=O)Nc2ccccc2-c2ccccc2)c(C)c1,6.87
5,COc1ccc(-n2c(SCC(=O)NCC3CCCO3)nc3ccccc32)cc1 (stereo not shown),-0.367
6,CCC/C(O)=C1\C(=O)CC(C)(C)CC1=Nc1ccc(OC)cc1,10.5
7,COc1ccccc1CNC(=O)C1CCCN(S(=O)(=O)c2cnc[nH]2)C1 (stereo not shown),8.47
8,O=C(CSc1ccc2ccccc2n1)c1ccc2c(c1)OCO2,-0.54
9,Cc1cc(C)n(-c2ccnc3cc(Cl)ccc23)n1,13.1
10,COc1ccc(CN(C#N)c2nc(C)cc(C)n2)cc1,14.7
11,O=C(CCn1c(=O)oc2ccc(Cl)cc21)N1CCN(Cc2ccccc2)CC1,-4.55
12,Cc1ccc(C(=O)NC(=O)OCCn2c(C)cnc2[N+](=O)[O-])cc1,-2.2
13,O=C1C2C(c3ccccc3)C=CC(c3ccccc3)C2C(=O)N1c1ccncc1 (stereo not shown),11.4
14,CC12CCC(C(=O)NCc3ccccc3Cl)(OC1=O)C2(C)C (stereo not shown),-1.57
15,NS(=O)(=O)c1cc(C(=O)OCCNC(=O)c2ccccc2)c(Cl)cc1Cl,13.6
16,CC(C)(C)c1ccccc1NC(=O)NC1CCN(Cc2c(F)cccc2Cl)CC1,11.7
17,COc1ccccc1C(=O)Oc1ccc(C(C)(C)C)cc1,-4.75
18,CC(=O)[C@H]1[C@H](c2cccc(Cl)c2)C(C#N)(C#N)[C@@H]2c3ccccc3C=CN21,8.93
19,COc1ccc(-c2csc(NC(=O)Cc3ccccc3F)n2)c(OC)c1,20.1
20,CC1CCC(=NNC(=O)Cc2cccn2C)CC1 (stereo not shown),8.86
21,CCCCCCCCNC(=O)CC(NS(=O)(=O)c1ccc(NC(C)=O)cc1)C(C)C (stereo not shown),6.24
22,COc1ccc(CC2(CO)CCN(Cc3cccc4nccnc34)CC2)cc1,-53

row,SMILES,"hERG current change (%, negative = inhibition) at 1uM [%]"
1,Cc1ccc(OCCCC(=O)NC2CCCCC2)cc1,14.7
2,O=C(O)CC(NC(=O)c1cccc([N+](=O)[O-])c1)c1ccc2c(c1)OCO2 (stereo not shown),13.1
3,O=C(Cc1ccc(Cl)cc1)Nc1ccccn1,23.3
4,CCn1cc(C(=O)OCC(=O)Nc2c(C)cccc2C)c(=O)c2ccc(C)nc21,14.5
5,Cc1nc2sc(C(c3cccs3)N3CCC(C(N)=O)CC3)c(O)n2n1 (stereo not shown),10.8
6,CCC(=O)N1CCc2cc(S(=O)(=O)CCC(=O)Nc3ccc(C(C)=O)cc3)ccc21,0.948
7,CN(Cc1ccccc1)C(=O)N[C@@H](Cc1ccccc1)C(=O)O,8.82
8,COc1ccc(S(=O)(=O)N2CCOC23CCN(S(=O)(=O)c2ccc([N+](=O)[O-])cc2)CC3)cc1,-12.2
9,Cc1cccc(NC(=O)c2cc(S(=O)(=O)N3CCc4ccccc43)cn2C)c1C,12.7
10,CCOc1ccc(CCNS(=O)(=O)c2c(C)n[nH]c2C)cc1OCC,4.57
11,Nc1c(S(=O)(=O)c2cc(Cl)ccc2Cl)c2nc3ccccc3nc2n1CCN1CCOCC1,-3.72
12,COc1ccc(NC(=O)C2CCN(C(=O)Cc3ccccc3)CC2)cc1OC,12.1
13,CC1CCCN(CCCNC(=O)c2cn(C)c3ccc(S(=O)(=O)N(C)C4CCCCC4)cc3c2=O)C1 (stereo not shown),-13.2
14,C#CC(C)(C)NC(=O)CSc1nc2c(c(=O)n(C)c(=O)n2C)n1CCCC,0.505
15,COc1ccc(-c2cc(=O)c3c(O)cc(O[C@@H]4O[C@H](CO[C@@H]5O[C@@H](C)[C@H](O)[C@@H](O)[C@H]5O)[C@@H](O)[C@H](O)[C@H]4O)cc3o2)cc1O,12.5
16,CCOC(=O)c1sc(NC(=O)c2ccccc2F)c(C(N)=O)c1C,7.97
17,CCc1ccc(NS(=O)(=O)c2ccc3[nH]cc(C(=O)N(C)Cc4ccco4)c(=O)c3c2)cc1,-3.76
18,Cl.Ic1ccc(N2CCN(Cc3c[nH]c4ncccc34)CC2)cc1,14.1
19,COc1cc(NC(=S)N2CCCC(C)C2)c(OC)cc1Cl (stereo not shown),19.4
20,COc1ccc(C(=O)N2CCNC(=O)C2)cc1S(=O)(=O)Nc1ccc(Br)cc1,5.42
21,C=C(CC1CC(O)[C@]2(C)OC3CC4OC5C[C@]6(C)O[C@]7(C)CCC8OC9C[C@]%10(C)OC%11C(C)=CC(=O)OC%11CC%10OC9C[C@@H](C)C8OC7CC6O[C@]5(C)C/C=C\C4OC3CC2O1)C(=O)O (stereo partly shown),5.87
